Test results as given in PubChem BioAssay AID1745853 (National Center for Advancing Translational Sciences (NCATS), 2022).
Some of the results follow. Shown are side measurements of this screen, not its main read-out; they come without a call. Square brackets hold non-standard residues; d marks the D form. Peptide text beside a SMILES is read from it. ξ: configuration not given here. ξLac(3-iPr) = CC(C)CC(O)C(=O)O; NMeV = CN[CH](C(=O)O)C(C)C; βAla = NCCC(=O)O

Tests used:
Assay in all cases: Primary Screen for Target Class Profiling of Small Molecule Inhibitors of Methyltransferases
[1] = biological target: Glycine N-methyltransferase (Homo sapiens) (UniProt Q14749); details: purified enzyme, MTase-Glo SAH luminescence; measured here: GNMT inhibition; at 40 µM; stronger effect = lower value
How it was run: (§1)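 Each enzyme was assayed with SAM and its substrate. SAH formation detected by MTase-Glo luminescence; single-point 40 uM screen[…].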

[2] = biological target: Guanidinoacetate N-methyltransferase (Homo sapiens) (UniProt Q14353); details: purified enzyme, MTase-Glo SAH luminescence; measured here: GAMT inhibition; at 40 µM; stronger effect = lower value
How it was run: as §1

[3] = biological target: Histamine N-methyltransferase (Homo sapiens) (UniProt P50135); details: purified enzyme, MTase-Glo SAH luminescence; measured here: HNMT inhibition; at 40 µM; stronger effect = lower value
How it was run: as §1

[4] = biological target: Nicotinamide N-methyltransferase (Homo sapiens) (UniProt P40261); details: purified enzyme, MTase-Glo SAH luminescence; measured here: NNMT inhibition; at 40 µM; stronger effect = lower value
How it was run: as §1

[5] = biological target: Phenylethanolamine N-methyltransferase (Homo sapiens) (UniProt P11086); details: purified enzyme, MTase-Glo SAH luminescence; measured here: PNMT inhibition; at 40 µM; stronger effect = lower value
How it was run: as §1
% is scaled to controls: 0 for no effect and ±100 for the full control effect.

SMILES	activity change, negative = inhibition [1] [%]	activity change, negative = inhibition [2] [%]	activity change, negative = inhibition [3] [%]	activity change, negative = inhibition [4] [%]	activity change, negative = inhibition [5] [%]
Brc1cccc(-c2nnn3c2nc(NCc2ccccc2)c2ccccc23)c1	-4.64	-3.57	-12.6	-11.4	-13.9
Cn1c(=O)c2ccc(C(=O)NC3CCCC3)cc2n2c(=O)n(CC(=O)Nc3ccc(Cl)cc3)nc12	1.47	-1.04	2.42	-5.49	-1.29
CC(=O)O[C@@H]1[C@@H](O)[C@H](C)O[C@@H](O[C@H]2[C@@H]3C=CO[C@@H](O[C@@H]4O[C@H](CO)[C@@H](O)[C@H](O)[C@H]4O)[C@@H]3[C@@]3(CO)O[C@@H]23)[C@@H]1OC(=O)/C=C/c1ccccc1	0.814	2.19	3.3	-8.13	-1.02
CC1(C(=O)NCc2ccccc2)Cn2c(ccc2-c2ccco2)C(=O)N1Cc1ccccc1F (stereo not given)	1.04	0	5.4	0.265	-0.403
Cc1ccoc1C(=O)N1CCc2c(nc(-c3cccnc3)nc2N(C)C)C1	-16.7	-6.63	-9.65	-43.8	-3.86
CC1(C(=O)NC2CCCC2)Cn2c(c(-n3cccc3)c3ccccc32)C(=O)N1Cc1cccs1 (stereo not given)	-1.58	1.08	-3.41	-12.9	-3.05
CC(C)c1noc(C2CCN(c3ncnc(Nc4ccc(S(C)(=O)=O)cc4F)c3[N+](=O)[O-])CC2)n1	-1.35	-8.92	-1.06	-26	-12.4
CC(C)CC1OC(=O)C2CCCN2C(=O)CCNC(=O)C(Cc2ccccc2)NC(=O)C(C(C)C)N(C)C(=O)C(C(C)C)N(C)C1=O (stereo not given) (cyclo([ξLac(3-iPr)][NMeV][NMeV]F[βAla]P); configuration not given here)	1.55	-2	1.84	-15.6	0.474
CC(NC(=O)c1ccccc1N)C(=O)O (stereo not given)	2.75	1.81	11	-11.7	-6.19
CCCn1c(=O)c2ccc(C(=O)NC3CCCC3)cc2n2c(=O)n(Cc3ccc(C)cc3)nc12	-3.27	0.433	-3.03	-11.9	-8.21
COc1ccc2[nH]c(CNc3cc(C4CC(N)C4)nc(C)n3)cc2c1 (stereo not given)	-23	-8.47	-67	-58.8	-34.8
CC(C)c1ccc(NS(=O)(=O)c2ccc3[nH]c(=O)[nH]c3c2)cc1	-1.62	4.02	-2.86	-12.1	-25.2
CC(O)CCNS(=O)(=O)c1ccc2c(c1)CN(C(=O)c1ccon1)CC2 (stereo not given)	-5.18	-8.01	-3.94	-16.3	-13.1
COc1ccc(CN2CCN(C(=O)[C@H]3CCC[C@@H](O)C3)CC2=O)cc1	-0.03	2.6	2.48	0.672	-15
Cn1cnc(S(=O)(=O)NCCc2ccc(Cl)cc2)c1	-1.03	3.18	6.42	0.406	5.26
COc1ccc(S(=O)(=O)N2CCCC(CN3CCOCC3)CC2)cc1 (stereo not given)	4.12	0.169	11.1	2.7	7.69
CCCCN1C(=O)c2cc(C(=O)Nc3cc(F)ccc3F)nn2CC1(C)C(=O)NC1CCCC1 (stereo not given)	7.46	3.77	9.07	7.64	4.9
Cc1c(Cl)cccc1N1C(=O)c2cc3sccc3n2CC1(C)C(=O)NC1CCCC(C)C1C (stereo not given)	2.48	-4.81	3.32	3.25	3.08

SMILES	activity change, negative = inhibition [1] [%]	activity change, negative = inhibition [2] [%]	activity change, negative = inhibition [3] [%]	activity change, negative = inhibition [4] [%]	activity change, negative = inhibition [5] [%]
Cc1ccc(C)c(N2C(=O)c3cc4occc4n3CC2(C)C(=O)NC2CCC(C)CC2)c1 (stereo not given)	0.339	0	0.843	7.12	1.83
C[C@@H]1O[C@@H](O[C@H]2[C@H](O)[C@@H](C(=O)O)O[C@@H](O[C@H]3CC[C@@]4(C)C(CC[C@]5(C)C4CC=C4C6CC(C)(C)CC[C@]6(C(=O)O)CC[C@]45C)C3(C)C)[C@@H]2O[C@@H]2OC[C@@H](O)[C@H](O)[C@H]2O)[C@H](O)[C@H](O)[C@H]1O (stereo not given in full)	-4.21	-1.74	2.56	-11	-0.239
CC1CCC(NC(=O)C2(C)Cn3c(ccc3-c3ccco3)C(=O)N2CC(C)c2ccccc2)CC1 (stereo not given)	-1.07	0	3.23	-3.92	-1.59
CCN(CC)CC(=O)Nc1c(C)cccc1C	7.15	16.5	9.18	0.137	6.47
CC1(C)[C@H](Cc2cc(COc3ccccc3)on2)C[C@@H]1NC1CCC1	-5.51	-7.57	-23.5	-15.4	-9.57
CN1C(=O)CS(=O)C12CCN(C(=O)C1(c3ccccc3)CC1)CC2 (stereo not given)	0.608	0.916	-1.12	-3.54	-3.13
COCCCN1C(=O)c2cc3sccc3n2CC1(C)C(=O)NC1CCCCCC1 (stereo not given)	-2.14	4.5	-1.42	-1.62	-0.186
CCC(C)(Oc1ccc(C2(c3ccc(OC(C)(CC)C(=O)O)cc3)CCCCC2)cc1)C(=O)O (stereo not given)	-9.36	-16.2	1.07	-26.1	-4.86
CCOC(=O)c1cnc2ccc(Br)cc2c1Nc1ccc(C(C)=O)cc1	-14.6	4.72	2.08	-4.89	-1.85
C[C@@H](O[C@H]1OCCN(Cc2nn(P(=O)(O)O)c(=O)[nH]2)[C@H]1c1ccc(F)cc1)c1cc(C(F)(F)F)cc(C(F)(F)F)c1	1.28	3.85	2.45	-14.1	-4.29
CCCn1c(=O)c2ccccc2n2c(SCC(=O)Nc3ccc(Cl)cc3)nnc12	0.723	0.092	6.32	-5.69	4.32
OCC1NCC(O)C(O)C1O (stereo not given)	1.67	9.95	4.72	-2.33	5.85
Cc1cc2[nH]c(=O)[nH]c2cc1S(=O)(=O)NCc1ccccc1Cl	-1.7	4.12	-6.09	-9.41	-9.74
COc1ccc(NC(=O)CCc2nnc3n(Cc4ccc(C)cc4)c(=O)c4ccccc4n23)cc1OC	-5.27	2.91	-3.93	6.61	-6.3
O=C(Nc1ccccc1Br)N1Cc2c(sc3c2CCCC3)-n2cccc2C1c1ccccc1 (stereo not given)	-1.42	0	-1.27	-0.231	4.37
Cc1cccc(Cn2nc3n(CCC(C)C)c(=O)c4ccccc4n3c2=O)c1	-2.14	0	4.38	-7.47	-1.8
COc1cc2nccc(Oc3ccc(NC(=O)NC4CC4)c(Cl)c3)c2cc1C(N)=O	-6.83	7.35	2.2	-16.6	4.68
